In all, about 3,200 compounds went through this assay and about 75 (2%) showed an effect of 50% or more. Some of the results follow.
What follows are compounds tested on T1, S. aureus MSSA476. Conditions: relative growth, OD600, TSB; 25 µM; inhibitor.
T1 construct: MSSA476
Design: species or system S. aureus MSSA476 (TSB) or V. cholerae SAD30 (LB); 384-well bacterial growth screen at 25 uM, OD600 relative to DMSO control

| Structure (SMILES) | % of control remaining [%] |
| --- | --- |
| C=CC(=O)Nc1c2c(cc3c1CCC3)CCC2 [1-C11, N-(1,2,3,5,6,7-hexahydro-s-indacen-4-yl)prop-2-enamide] | 94.5934 |
| C=CC(=O)NCc1ccc(N2CCN(C)CC2)cc1 [3-I20, N-{[4-(4-methylpiperazin-1-yl)phenyl]methyl}prop-2-enamide] | 114.236 |
| C=CC(=O)NC(c1ccc(F)cc1)c1ccn(C)n1 (centres unmarked) [3-J20, N-[(4-fluorophenyl)(1-methyl-1H-pyrazol-3-yl)methyl]prop-2-enamide] | 102.394 |
| CCN(CC)c1ccc(NC(=O)CCl)cc1 [6-N10, 2-chloro-N-[4-(diethylamino)phenyl]acetamide] | 98 |
| O=C(CCl)Nc1ccnn1Cc1cccs1 [5-O13, 2-chloro-N-{1-[(thiophen-2-yl)methyl]-1H-pyrazol-5-yl}acetamide] | 127.505 |
| CCCN(CC1CC1)C(=O)CCl [5-H11, 2-chloro-N-(cyclopropylmethyl)-N-propylacetamide] | 96.1749 |
| C=CC(=O)N1CCOC2(CCCC2)C1 [3-I11, 1-{6-oxa-9-azaspiro[4.5]decan-9-yl}prop-2-en-1-one] | 86.7218 |
| Cc1cc(C=C(C#N)C(=O)Nc2ccncc2)c(C)n1C1CC1 [8-K14, 2-cyano-3-(1-cyclopropyl-2,5-dimethyl-1H-pyrrol-3-yl)-N-(pyridin-4-yl)prop-2-enamide] | 95.6017 |
| CC(Cl)C(=O)Nc1ccc2c(c1)C(=O)c1ccccc1C2=O (centres unmarked) [4-G06, 2-chloro-N-(9,10-dioxo-9,10-dihydroanthracen-2-yl)propanamide] | 105.193 |
| CCN(CC)S(=O)(=O)c1ccc(Cl)c(NC(=O)CCl)c1 [5-J12, 2-chloro-N-[2-chloro-5-(diethylsulfamoyl)phenyl]acetamide] | 107.468 |
| C=CC(=O)N1CCC(C(=O)NC2CCN(C(=O)C(C)(C)C)CC2)CC1 [3-I21, N-[1-(2,2-dimethylpropanoyl)piperidin-4-yl]-1-(prop-2-enoyl)piperidine-4-carboxamide] | 104.136 |
| C=CC(=O)Nc1cc(NC(=O)c2cnn(-c3ccccc3)c2)ccc1F [2-G11, N-[4-fluoro-3-(prop-2-enamido)phenyl]-1-phenyl-1H-pyrazole-4-carboxamide] | 100.609 |
| N#CC(=Cc1ccco1)C(=O)Nc1cc2c(cc1Cl)NC(=O)CO2 [9-D20, N-(6-chloro-3-oxo-3,4-dihydro-2H-1,4-benzoxazin-7-yl)-2-cyano-3-(furan-2-yl)prop-2-enamide] | 81.1985 |
| C=CC(=O)N(C)Cc1ncc(C(F)(F)F)n1C [2-D19, N-methyl-N-{[1-methyl-5-(trifluoromethyl)-1H-imidazol-2-yl]methyl}prop-2-enamide] | 107.224 |
| C=CC(=O)N1CCOC(Cn2cncn2)C1 (centres unmarked) [1-F20, 1-{2-[(1H-1,2,4-triazol-1-yl)methyl]morpholin-4-yl}prop-2-en-1-one] | 143.824 |
| N#CCSc1ccccc1NC(=O)CCl [6-C11, 2-chloro-N-{2-[(cyanomethyl)sulfanyl]phenyl}acetamide] | 89.122 |
| COc1ccc(NC(C)=O)cc1NC(=O)C(C)Cl (centres unmarked) [4-M08, 2-chloro-N-(5-acetamido-2-methoxyphenyl)propanamide] | 91.4721 |
| C=CC(=O)NCCCn1cnc2ccccc21 [2-P11, N-[3-(1H-1,3-benzodiazol-1-yl)propyl]prop-2-enamide] | 92.6023 |
| C=CC(=O)N1C2C=C(c3nccn3C)CC1CC2 (centres unmarked) [3-G03, 1-[3-(1-methyl-1H-imidazol-2-yl)-8-azabicyclo[3.2.1]oct-2-en-8-yl]prop-2-en-1-one] | 83.239 |
| O=C(CCl)C1(F)CCCCC1 [10-K19, 2-chloro-1-(1-fluorocyclohexyl)ethan-1-one] | 143.75 |
| CC(C)NC(=O)C(C#N)=Cc1cccc(Cl)c1Cl [9-C07, 2-cyano-3-(2,3-dichlorophenyl)-N-(propan-2-yl)prop-2-enamide] | 109.963 |
| CC(Cl)C(=O)N1CCN(c2nccc3sccc23)CC1 (centres unmarked) [7-G10, 2-chloro-1-(4-{thieno[3,2-c]pyridin-4-yl}piperazin-1-yl)propan-1-one] | 107.378 |
| Cc1cc(C(=O)CCl)c(C)n1Cc1ccccc1 [10-M14, 1-(1-benzyl-2,5-dimethyl-1H-pyrrol-3-yl)-2-chloroethan-1-one] | 143.438 |
| CC(C)C1C(=O)Nc2ccc(Cl)cc2N1C(=O)CCl (centres unmarked) [5-C11, 6-chloro-4-(2-chloroacetyl)-3-(propan-2-yl)-1,2,3,4-tetrahydroquinoxalin-2-one] | 101.639 |
| C=CC(=O)N(CC)CC(=O)N1CCCC1c1cn(C)nc1C (centres unmarked) [2-N12, N-{2-[2-(1,3-dimethyl-1H-pyrazol-4-yl)pyrrolidin-1-yl]-2-oxoethyl}-N-ethylprop-2-enamide] | 110.009 |
| O=C(CCl)N(Cc1ccsc1)C1CC1 [5-N18, 2-chloro-N-cyclopropyl-N-[(thiophen-3-yl)methyl]acetamide] | 111.84 |
| C=CC(=O)NCc1ccc(C(=O)N2CCC(C(C)(C)O)CC2)cc1 [2-J20, N-({4-[4-(2-hydroxypropan-2-yl)piperidine-1-carbonyl]phenyl}methyl)prop-2-enamide] | 115.231 |
| CC(Cl)C(=O)N1CCn2c(C#N)ccc2C1C (centres unmarked) [6-F22, 2-(2-chloropropanoyl)-1-methyl-1H,2H,3H,4H-pyrrolo[1,2-a]pyrazine-6-carbonitrile] | 99.0244 |
| CC(C)c1nc(C=C(C#N)C(=O)NC2CCCCC2)c2ccccn12 [9-B15, 2-cyano-N-cyclohexyl-3-[3-(propan-2-yl)imidazo[1,5-a]pyridin-1-yl]prop-2-enamide] | 86.5918 |

— PMC11995724, “Antibiotic target discovery by integrated phenotypic and activity-based profiling of electrophilic fragments” (Cell chemical biology, 2025)
